From ChEMBL document CHEMBL4888484, “Replenishing the malaria drug discovery pipeline: Screening and hit evaluation of the MMV Hit Generation Library 1 (HGL1) against asexual blood stage Plasmodium falciparum ,using a nano luciferase reporter read-out” (2022) come the findings set out here.

The whole screen tested about 150,000 compounds, of which about 540 (0.36%) showed an effect of 50% or more. This is one part of the list.

The test system of the assay is Plasmodium falciparum. The assay can be described thus: Primary screen in NF54 nanoGlo assay, in single point, at 2uM, 72h; a lower Z score goes with more inhibition. It counts as functional, Erythrocyte. To be noted: timepoint 72 hour.
Take `C[C@@]1(C(=O)N2CCN(Cc3ccccc3)CC2)Oc2ccccc2NC1=O`: the “% Inhibition” value is listed as 3% and the Z score was -0.44.
The like results for `CCN(CC(=O)Nc1ccc2c(c1)OCCO2)C(=O)CCc1ccc(F)cc1` were, in that order, 1% and -0.17.
Turning to `CC(C)(C)OC(=O)N1CCC(c2c(C(=O)N3CCN(c4ccc(F)cc4)CC3)cnn2C(C)(C)C)CC1`, the “% Inhibition” value is on record as -8% and the Z score stood at 1.13.
With `O=C(CCC1CCCCC1)Nc1ccc(-c2nc3cc(Cl)ccc3o2)cc1`, the “% Inhibition” value was found to be 30% and the Z score is recorded as -3.45.
The like results for `Cn1c(C(F)(F)F)nn(C2CCN(C(=O)c3ccccc3Br)CC2)c1=O` were, in that order, 4% and -0.5.
As for `C[C@@H](CC#N)NC(=O)Nc1cc(-c2ccccc2)ns1`, the “% Inhibition” value stood at 35% and the Z score is listed as -5.06.
The corresponding values for `O=C(NCCN1CCOCC1)N1CCC=C(F)C1` are -11% and 0.98.
Regarding `CCN(C(=O)C1(C)COC1)C1CN(C(=O)C2(C)COC2)C1`, the “% Inhibition” value worked out at 6% and the Z score was -0.98.
As to `CCCCN(CCC(=O)NCCc1ccccc1)C(=O)c1cc(C)oc1C`, the “% Inhibition” value is on record as -28% and the Z score turned out to be 4.06.
The corresponding values for `Cc1nccn1[C@@H](C)C(=O)N1CCC(c2cc(N3CCCC3)ncn2)CC1` are 1% and -0.16.
Consider `CN(C)C(=NCC1CCCC1O)NCc1ccccc1` (stereo unspecified), for which the “% Inhibition” value was 8% and the Z score is -1.5.
Consider `CN(C)c1ccc(NC(=O)N2CCC[C@H]2c2ccncc2)cn1`, for which the “% Inhibition” value is listed as -8% and the Z score was 1.58.
With `CC(C)(C(=O)NCc1csc(=O)[nH]1)C(F)F`, the “% Inhibition” value is on record as -5% and the Z score is 0.76.
`O=C1[C@@H](NC(=O)C2(O)CCCC2)CCCN1Cc1ccccc1`: the “% Inhibition” value is recorded as -11% and the Z score amounted to 1.78.
`Cc1cc(Cl)ccc1NC(=O)N1C[C@H](c2nc(-c3cccnc3)no2)[C@@H](C)C1`: the “% Inhibition” value is recorded as -9% and the Z score was 1.05.
As to `CCCc1nc(C)cc(NCc2csc(N)n2)n1`, the “% Inhibition” value is on record as -6% and the Z score turned out to be 0.92.
The like results for `CC1(C)O[C@@H]2C[C@@](OCc3ccccc3F)(C(=O)NCC3CCCO3)CC(OCc3cccc(OC(F)(F)F)c3)[C@@H]2O1` (stereo partly specified) were, in that order, -5% and 0.58.
The like results for `Cc1noc(C)c1CC(=O)N1CCC(n2nc(C(F)(F)F)n(C)c2=O)CC1` were, in that order, -4% and 0.67.
For `Cc1cc(N(C)C)nc(NCCNC(=O)Nc2cccc(F)c2C)n1`, the “% Inhibition” value is on record as 20% and the Z score was -2.61.
The like results for `O=C(N1CCCC1)N1CC[C@H]2[C@H](CCC(=O)N2CCCCO)C1` were, in that order, -7% and 1.45.
In the case of `C[C@H](O)CN(C)S(=O)(=O)c1cc(F)c(Br)cc1F`, the “% Inhibition” value is listed as -10% and the Z score stood at 1.13.
Consider `Cc1ccc(CNC(=O)c2[nH]nc3c2CCC3)s1`, for which the “% Inhibition” value was -1% and the Z score was 0.17.
The corresponding values for `CC(C)[C@@]1(CO)CCCN(C(=O)Nc2nnc(C3CCOCC3)s2)C1` are -2% and 0.15.
The corresponding values for `CC(C)c1nccc(N(C)C[C@H](O)c2cccnc2)n1` are -4% and 0.69.
The like results for `O=C(Cn1nc(C2CC2)ccc1=O)NCc1ccccc1` were, in that order, 2% and -0.42.
For the compound `CC[C@H](NC(=O)CC1CCN(C(C)C)CC1)c1nc(C)no1`, the “% Inhibition” value was -10% and the Z score is reported as 1.27.
The corresponding values for `CCc1nc(C)c(C(=O)N2CCC[C@H](c3nc(-c4ccccc4)no3)C2)o1` are -16% and 1.49.
Turning to `O=C(c1ccn2c(-c3cccc(Cl)c3)nnc2c1)N1CCN(c2ccccc2F)CC1`, the “% Inhibition” value is 5% and the Z score is on record as -0.53.
For `COc1c(C)cc(C(=O)[C@H]2CCCN(C(=O)c3cc(=O)[nH]c(=O)[nH]3)C2)cc1C`, the “% Inhibition” value is recorded as -2% and the Z score came to 0.26.
As to `CC1(COc2ccccc2C#N)COC1`, the “% Inhibition” value is reported as 13% and the Z score was -1.51.
The like results for `O=C(Nc1cncc(Cl)c1)NC12CCC(CC1)C2` were, in that order, -2% and 0.35.
Consider `COc1ccc(C(=O)NC2CC2)c(OC2CCN([C@@H](C)Cc3ccc(C)cc3)CC2)c1`, for which the “% Inhibition” value was determined as 7% and the Z score is -1.14.
The like results for `OCCN(Cc1cccnc1)Cc1cn2cc(Cl)ccc2n1` were, in that order, -7% and 0.66.
On to `Cc1c(CC(=O)N[C@H]2CCNC2=O)c2c(n1Cc1ccccc1)CCCC2=O`, for which the “% Inhibition” value is -21% and the Z score turned out to be 2.73.
For the compound `CCc1nc([C@H](C)Nc2cnn(CC)c2)oc1-c1ccccc1`, the “% Inhibition” value was -11% and the Z score worked out at 1.45.
The corresponding values for `Cn1nc2c(cc1=O)C[C@@H](NC(=O)c1ccc3c(c1)OCO3)CC2` are -25% and 4.33.
Regarding `CN(C)[C@H]1CCN(C(=O)Nc2ccccc2CS(=O)(=O)c2ccccc2)C1`, the “% Inhibition” value is given as 2% and the Z score is given as -0.25.
The corresponding values for `COc1ccc(CN(C)CCN2CCCCC2=O)cn1` are 11% and -1.39.
Turning to `COc1ccc(-c2nnc(-c3cc(S(=O)(=O)N4CCCCCC4)ccc3Cl)o2)cc1`, the “% Inhibition” value is reported as -1% and the Z score is 0.08.
With `COC(=O)c1[nH]c(C)cc1NS(=O)(=O)c1ccc(C2CCCCC2)cc1`, the “% Inhibition” value turned out to be 2% and the Z score is -0.19.
With `Cc1cccc(Cc2sc(N3C(=O)N[C@@](C)(CCF)C3=O)nc2C)c1`, the “% Inhibition” value is -12% and the Z score is 1.17.
The like results for `Cc1ccsc1-c1nc(CC(N)=O)nn1C(C)(C)C` were, in that order, 0% and 0.06.
For the compound `Cc1nc(C(=O)NCCOc2cncc(Cl)c2)c(C)o1`, the “% Inhibition” value is on record as 27% and the Z score is reported as -3.06.
